# Out of some 39,000 compounds screened, about 220 (0.56%) showed activity. The list shows a part of the results.
# Tested on: Escherichia coli K-12 BW25113
# Assay: relative growth (OD600 normalised to plate interquartile mean) (fraction); higher = less growth inhibition, active = 0.2 or less
# Conditions: 50 µM; LB; incubation time: overnight (16-24 h)
# 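Further: static incubation at 37 °C against the wild-type strain, values averaged over two biological replicates.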
row,SMILES,relative growth
1,Cc1noc(C)c1NC(=O)N(C)C[C@H]1Oc2c(NC(=O)C3CC3)cccc2C(=O)N([C@@H](C)CO)C[C@H]1C,inactive: 1.03
2,CO[C@@H]1CN(C)C(=O)c2ccc(NC(=O)Nc3ccccc3F)cc2OC[C@@H](C)N(C(=O)Nc2ccccc2F)C[C@H]1C,inactive: 1.01
3,Cc1ccc(Nc2c(F)cccc2Cl)c(CC(=O)O)c1,inactive: 1.03
4,C[C@@H]1CN([C@H](C)CO)C(=O)c2cc(NC(=O)CCC(F)(F)F)ccc2O[C@@H](C)CCCCO[C@@H]1CN(C)S(=O)(=O)c1ccc(Cl)cc1,inactive: 1.02
5,CCOc1nc2cccc(C(=O)O[C@@H](C)OC(=O)OC3CCCCC3)c2n1Cc1ccc(-c2ccccc2-c2nn[nH]n2)cc1,inactive: 0.836
6,COc1cc2c(cc1OC)C(=O)C(CC1CCN(Cc3ccccc3)CC1)C2.Cl (stereo not drawn),active: 0.0489
7,C[C@@H]1CN([C@@H](C)CO)S(=O)(=O)c2ccc(C#CC(C)(C)O)cc2O[C@@H]1CN(C)Cc1ccccc1,inactive: 1
8,Cc1nnc(C(C)C)n1[C@@H]1C[C@H]2CC[C@@H](C1)N2CC[C@H](NC(=O)C1CCC(F)(F)CC1)c1ccccc1,inactive: 0.965
9,Cc1cc(C(=O)Nc2cccc3c2O[C@H](CN(C)S(=O)(=O)c2ccccc2)[C@@H](C)CN([C@H](C)CO)C3=O)n(C)n1,inactive: 1.01
10,Cc1noc(C)c1S(=O)(=O)Nc1ccc2c(c1)C(=O)N([C@@H](C)CO)C[C@@H](C)[C@H](CN(C)Cc1ccc3c(c1)OCO3)O2,inactive: 0.992
11,O=C(C[C@H]1CC[C@@H]2[C@H](COC[C@H](O)CN2S(=O)(=O)c2ccccc2F)O1)NCc1ccccc1F,inactive: 1.01
12,O=C(OC1Cc2c(O)cc(O)cc2OC1c1ccc(O)c(O)c1)c1cc(O)c(O)c(O)c1 (stereo not drawn),inactive: 1.05
13,C[C@H](CO)N1C[C@H](C)[C@@H](CN(C)C(=O)Nc2cccc(F)c2)Oc2ncc(C#CCN(C)C)cc2C1=O,inactive: 1.05
14,C[C@@H]1CN([C@@H](C)CO)C(=O)c2cc(NC(=O)c3ccccc3)ccc2O[C@@H](C)CCCCO[C@@H]1CN(C)C(=O)NC1CCCCC1,inactive: 1
15,CN1CCc2c(c3ccccc3n2Cc2ccccc2)C1,inactive: 0.93
16,CNCC(O)C(O)C(O)C(O)CO.Cc1c(Nc2ncccc2C(=O)O)cccc1C(F)(F)F,inactive: 1.04
17,COC(=O)C=Cc1cc(OC)c(OC)c(OC)c1,inactive: 1.1
18,COc1ccc(NC(=O)N(C)C[C@@H]2Oc3cc(Br)ccc3S(=O)(=O)N([C@H](C)CO)C[C@H]2C)cc1,inactive: 0.993
